# According to PubChem BioAssay AID1508624 (National Center for Advancing Translational Sciences (NCATS), 2021):
# Screen size: about 48,000 compounds; about 120 (0.25%) were called active. Another 4% or so got no clear call; they are omitted. Calls follow the shape of the dose curve; as a rule, active = well fitted activation curve with a large enough effect; inconclusive = small, poorly fitted or top-dose-only effect, or another doubt; inactive = no such curve, though single readings can be large or run the other way. The entries are a selection whose mix differs from that of the whole data set. Entries without a call were filed so in the source.
# Experiment: Primary qHTS for Identification of Small Molecule Activators of Huntingtin-Antisense Promoter Activity; also: nearly all actives have a fitted effect of over 55% in size
# Details: HEK293 HTT-AS promoter firefly luciferase reporter, 24 h; activity change, positive = activation: at 57.5 µM (top of the series), percent change from vehicle, -100% = no light
# Outline: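 Luminescence was read after Dual-Glo reagent and a 10 min room-temperature incubation. Values were normalized to vehicle (0% activity) and zero RLU (-100% activity). Reporter HEK293 cells had been exposed to compounds (up to 57.5 uM final) for 24 h.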
# Potency is read from the fitted curve at half-maximal effect.
SMILES,"activity change, positive = activation",Potency
COc1ccc(C2C(=O)N(C3CCCCCC3)CC(=O)N2CCC2=CCCCC2)cc1 (stereo unspecified),-25.1%,–
Cc1ccc(N(CC(=O)N2CCN(c3cccc(Cl)c3)CC2)S(=O)(=O)c2c(C)noc2C)cc1,inactive: -30%,–
COc1ccc(NC(=O)C(Cc2c[nH]c3ccccc23)NC(=O)OC(C)(C)C)cc1 (stereo unspecified),-6.4%,–
CCCCc1ccc(NC(=O)c2cc(-c3ccc(C)c(F)c3)on2)cc1,-3.54%,–
COc1ccc(C2=C(Nc3ccc(Br)c(C)c3)c3ccccc3C2=O)cc1,-36.4%,–
CCN(CC)C(=O)c1sc(NC(=O)C2c3ccccc3Oc3ccccc32)c(C(=O)OC(C)C)c1C,-12.9%,–
CCOc1ccc(Nc2nc3ccccc3c3nnc(CC)n23)cc1,-7.55%,–
COc1ccc(NC(=O)CC2C(=O)N(c3ccccc3)C(=O)N2Cc2cccnc2)cc1 (stereo unspecified),9.07%,–
Cc1oc2ccc(O)c(CN3CCN(C)CC3)c2c1C(=O)Nc1ccccc1,4.33%,–
CCCCCOc1ccc(C2SC(=O)NC2=O)cc1OCC (stereo unspecified),inactive: 13.3%,–
Cc1cc(C)cc(OCCCn2c(-c3ccc(Cl)cc3)nc3ccccc3c2=O)c1,-1.83%,–
Cc1ccc(-c2cc(C(=O)N(Cc3ccccc3)Cc3ccco3)no2)cc1F,-5.92%,–
O=C(Nc1ccc(F)cc1F)c1noc2c1CCc1ccccc1-2,95.1%,–
CCc1ccc(NC(=O)CC2C(=O)N(c3ccccc3)C(=O)N2C(C)C)cc1 (stereo unspecified),25.8%,–
Cc1ccc(C)c(NC(=O)Cn2c(=O)n(CCC(=O)NCc3ccc4c(c3)OCO4)c(=O)c3ccccc32)c1,inactive: -8.08%,–
Cc1ccc(-c2cc(NC(=O)c3ccccc3Cl)on2)cc1,–,active: 4.47 µM
CCCOc1ccc(NC(=O)CC2C(=O)N(c3ccc(C)cc3)C(=O)N2C(C)C)cc1 (stereo unspecified),-14%,–
C=C(C)Cn1c(SCC(=O)Nc2ccccc2C)nc2sc3c(c2c1=O)CCCC3,-11%,–
O=C(Nc1ncc(-c2cc(C(F)F)nn2-c2c(Cl)cccc2Cl)s1)C1CC1,inactive: -42.3%,–
O=S(=O)(Nc1ccc(-c2ccc(N3CCCCC3)nn2)cc1)c1ccc(OC(F)(F)F)cc1,-3.32%,–
Cc1nn(-c2ccc(N3CCCCC3)nn2)c(C)c1CCC(=O)NCc1ccc(F)cc1,6.33%,–
O=C(CSc1nc(-c2cccs2)nc2cc(=O)[nH]n12)Nc1ccccc1,-10.5%,–
Cn1c(=O)n(C)c2cc(NS(=O)(=O)c3ccc(F)cc3)c(NCc3ccccc3)cc21,46.3%,–

SMILES,"activity change, positive = activation",Potency
CC1=C(c2ccc(C(C)C)cc2)S(=O)(=O)N=C1N1CCC(C(=O)Nc2ccc(C)cc2)CC1,inactive: -30.4%,–
COc1ccccc1CNC(=O)c1cnc2sc(N3CCCCC3)nn2c1=O,3.81%,–
Cc1cccc(NC(=O)CSc2nc(-c3cccs3)nc3cc(=O)[nH]n23)c1,-11.1%,–
CCOC(=O)c1c(NC(=O)c2cc(-c3ccc(OC)c(OC)c3)on2)sc2c1CCCC2,1.64%,–
COc1ccc2c(C)c(CC(=O)NCc3ccccc3Cl)c(=O)oc2c1OC,-14.6%,–
CN(C)S(=O)(=O)N1CCC(n2c(C(F)(F)F)nc3cccnc32)CC1,0.498%,–
CCCOc1ccc(C(=O)Nc2cc3c(cc2N2CCCCC2)n(C)c(=O)n3C)cc1,1.72%,–
COCCCNC(=O)c1cnc2sc(N3CCCCC3)nn2c1=O,2.6%,–
Cc1ccc2oc(-c3ccc(Cl)c(NC(=O)c4cc5ccccc5o4)c3)nc2c1,81.1%,–
Cc1ccc(NC(c2nnc(-c3ccccc3)o2)c2ccccc2F)c(Cl)c1 (stereo unspecified),2.54%,–
Cc1ccc(S(=O)(=O)C(CNS(=O)(=O)c2ccc(F)c(C(F)(F)F)c2)c2ccco2)cc1 (stereo unspecified),inactive: 4.18%,–
COc1ccccc1CNC(=O)CCc1c(C)nn(-c2ccc(N3CCCCC3)nn2)c1C,17.7%,–
COC(=O)c1ccc(NC(=O)CN(Cc2ccccc2)S(=O)(=O)c2ccc(Cl)cc2)cc1,-47.9%,–
O=C(C1CCN(c2ncnc3c2nc2n3CCCCC2)CC1)N1CCN(c2ccc(Cl)cc2)CC1,inactive: -10.6%,–
CCOc1ccc(C2C(=O)N(C3CCCCC3)CC(=O)N2CCc2ccccc2)cc1OC (stereo unspecified),-25.7%,–
COc1ccccc1NC(=O)c1ccc2c(Cl)c3c(nc2c1)CCCC3,inactive: 5.26%,–
Cc1ccc(-n2ncc3c(NCCCN4CCOCC4)ncnc32)cc1Cl,inactive: -7.32%,–
COc1cc(Cl)c(C)cc1NC(=O)c1cc2ccc3cccnc3c2[nH]1,inactive: -15.1%,–
CCOC(=O)C=C[C@H](C[C@@H]1CCNC1=O)NC(=O)[C@@H](CC(=O)[C@@H](NC(=O)c1cc(C)on1)C(C)C)Cc1ccc(F)cc1,inactive: 10.6%,–
Cc1ccc2nc(NCc3ccccc3)c3nnnn3c2c1,6.26%,–
COC(=O)c1cc2oc3ccccc3c2n1Cc1nc(-c2ccccc2Cl)oc1C,-7.19%,–
Cc1ccc(NC(=O)CCOc2ccccc2)cc1,–,active: 10 µM
COC(=O)c1ccc(NC(=O)CC2C(=O)N(c3cccc(OC)c3)C(=O)N2Cc2ccco2)cc1 (stereo unspecified),-4.33%,–
